Results on 42 molecules are retold here after ChEMBL document CHEMBL4888484, “Replenishing the malaria drug discovery pipeline: Screening and hit evaluation of the MMV Hit Generation Library 1 (HGL1) against asexual blood stage Plasmodium falciparum ,using a nano luciferase reporter read-out” (2022).

Broadly, the % Inhibition is the relative decrease from the control value, in per cent.

The whole screen tested about 150,000 compounds, of which about 540 (0.36%) showed an effect of 50% or more. This is one part of the list.

The subject of this assay is Plasmodium falciparum. Description: Primary screen in NF54 nanoGlo assay, in single point, at 2uM, 72h; a lower Z score goes with more inhibition. Particulars: timepoint 72 hour. In kind it is functional, Erythrocyte.
For `O=C(NCC1(N2CCCC2)CCCC1)Nc1ccc2[nH]ncc2c1`, the “% Inhibition” value is recorded as -1% and the Z score came out at 0.16.
On to `CC(C)n1cc(NC(=O)c2ccncc2Cl)cn1`, for which the “% Inhibition” value is on record as -9% and the Z score is listed as 1.57.
Turning to `Cc1ncccc1C(=O)N[C@@H](C)C(C)(F)F`, the “% Inhibition” value is recorded as -11% and the Z score amounted to 2.16.
Regarding `N#Cc1ccc(N2CCN3C(=O)NCC3C2)nc1N1CCN2C(=O)NCC2C1` (centres undefined), the “% Inhibition” value is listed as 33% and the Z score is listed as -4.81.
For `COc1cccc(Cn2ncc3ccc(C(=O)NCc4ccc5c(c4)OCO5)cc32)c1` the same measures were -18% and 3.26.
Regarding `CN(C[C@H]1CCCCO1)C(=O)Nc1cc2c(cc1N(C)C)n(C)c(=O)n2C`, the “% Inhibition” value is 11% and the Z score is reported as -1.02.
Turning to `COC(=O)c1cc(-c2ccncc2)nn1C`, the “% Inhibition” value was -12% and the Z score is given as 2.23.
Take `Cn1cc(-c2ccc(CNC(=O)CC(C)(C)C)cn2)cn1`: the “% Inhibition” value is 11% and the Z score is -1.47.
Turning to `Cc1cc(=O)n2ccn(Cc3nnc(C(C)C)s3)c2n1`, the “% Inhibition” value is given as -18% and the Z score was determined as 2.34.
For `COc1ccc(C(N)=O)cc1NC1C2CCOC2C12CCC2` (centres undefined), the “% Inhibition” value was -7% and the Z score is 0.64.
Consider `CCn1ncc2c1CCC[C@@H]2NC(=O)c1ccc(F)c2cccnc12`, for which the “% Inhibition” value was -5% and the Z score was 1.
For `CCCn1cc(N[C@@H](C)CC(C)(C)OC)cn1` the same measures were -13% and 1.9.
Turning to `Cc1ccc(-n2cc(CN3[C@@H]4CC[C@H]3CNC(=O)C4)cn2)cc1C`, the “% Inhibition” value came out at 2% and the Z score was -0.24.
Turning to `Cc1ccccc1C1=NO[C@@H](CN(Cc2cccc(Cl)c2)C(=O)NC(C)(C)C)C1`, the “% Inhibition” value is reported as -15% and the Z score was 2.22.
Regarding `Cn1c(CNC(=O)C2CCC2)nc2c1CN(C(=O)c1ccc(C(F)(F)F)s1)CC2`, the “% Inhibition” value is on record as -3% and the Z score was 0.32.
Regarding `C[C@]1(C(=O)O)CCN(Cc2c[nH]nc2-c2cccc(Cl)c2)C1`, the “% Inhibition” value was 11% and the Z score is given as -1.42.
For `Cc1ccsc1CNC(=O)CNC1CCOCC1C` (centres undefined) the same measures were -8% and 0.8.
Consider `COc1ccc(OCC(O)CN(CC(C)C)CC(O)COc2ccc(OC)cc2C(C)(C)C)c(C(C)(C)C)c1` (centres undefined), for which the “% Inhibition” value is reported as 0% and the Z score is 0.03.
For the molecule `O=C1N(CCC2CCCCC2)CCC[C@@]1(O)CN1CCCOCC1`, the “% Inhibition” value is -7% and the Z score is listed as 1.27.
In the case of `CCC(=O)N[C@@H]1CC(C(C)(C)NC(=O)CC)CC=C1C` (some centres undefined), the “% Inhibition” value is -2% and the Z score came to 0.23.
For `COCCCn1cnnc1CNC(=O)c1nn(C)c(C)c1Cl` the same measures were -28% and 2.8.
Turning to `Cc1c([C@@H](NCC(=O)N2CCC(C(N)=O)CC2)C(C)C)oc2ccccc12`, the “% Inhibition” value is listed as -13% and the Z score came out at 1.5.
As to `O=C1CCC(Cc2ccccc2)=NN1C1CCC1`, the “% Inhibition” value is recorded as -2% and the Z score is recorded as 0.21.
For `Cc1oc2ncn(C)c(=O)c2c1C(=O)N1CCN(c2ccccc2F)CC1` the same measures were -10% and 1.58.
In the case of `CC(CNC(=O)NCC1CCC(O)C1)c1cccs1` (centres undefined), the “% Inhibition” value is reported as -11% and the Z score was 1.46.
In the case of `CCS(=O)(=O)NCC(C)(C)c1ccc(Br)cc1`, the “% Inhibition” value was -8% and the Z score was found to be 1.35.
On to `CN(C)Cc1nnc([C@H]2C[C@H](NC(=O)c3ccc(F)cc3F)C2)n1C`, for which the “% Inhibition” value was 6% and the Z score is -1.08.
Consider `O=C(NCCCCC(F)(F)F)C1CC12CCc1ccccc12` (centres undefined), for which the “% Inhibition” value is reported as -1% and the Z score came out at 0.12.
Consider `COc1ccc(-c2nnsc2C(=O)NCc2ccncc2)cc1`, for which the “% Inhibition” value is given as -5% and the Z score worked out at 0.8.
On to `CCOC(=O)c1cc(O[C@@H](C)C(=O)N2CCc3ccccc3C2)cc(C(=O)OCC)c1`, for which the “% Inhibition” value is -6% and the Z score is 0.77.
As to `Cc1cccc(-c2nc(CN(C)Cc3sccc3C)c(C)o2)c1`, the “% Inhibition” value was -15% and the Z score is 2.17.
For `CC[C@@H](C(=O)Nc1c(-c2cccc(F)c2F)nc2cc(C)ccn12)c1ccccc1`, the “% Inhibition” value is given as -1% and the Z score came to 0.09.
With `O=C(c1ccn2ccnc2c1)N(CCc1cccc(F)c1)C1CCCC1`, the “% Inhibition” value is on record as -7% and the Z score was determined as 0.99.
For `CCC(=O)N[C@@H](C)C(=O)N1Cc2cnc(CC)nc2C1` the same measures were -13% and 2.48.
On to `Nc1nc(CCC(=O)N[C@H]2CN(C3CCCC3)C[C@@H]2C2CC2)cs1`, for which the “% Inhibition” value is listed as 0% and the Z score is listed as -0.02.
With `CN(C)c1ccc(C2OCC3(CCC4(COC(c5ccc(N(C)C)cc5)OC4)O3)CO2)cc1` (centres undefined), the “% Inhibition” value is 37% and the Z score was -4.71.
In the case of `CC[C@H]1CN(C(=O)CON=C(N)c2ccc(F)c(F)c2)CCO1`, the “% Inhibition” value was -1% and the Z score is listed as 0.13.
With `O=C(Nc1ccccc1)Nc1cc[n+]([O-])c(S(=O)(=O)c2ccccc2)c1`, the “% Inhibition” value is given as -1% and the Z score is on record as 0.17.
As to `CCc1ncc(C(=O)NCc2cnc(C)cn2)cn1`, the “% Inhibition” value was 1% and the Z score is reported as -0.14.
As to `Cc1cc(C(=O)N2Cc3cncnc3C2)c(C)o1`, the “% Inhibition” value is -8% and the Z score turned out to be 1.3.
On to `Cc1ccc(NC(=O)c2nnn(CC(=O)Nc3nccs3)c2C)cc1F`, for which the “% Inhibition” value is reported as 0% and the Z score is recorded as 0.03.
Consider `O=C1C[C@@H](c2ccccc2)N(C(=O)c2ccc3c(c2)OCC(=O)N3)CCN1`, for which the “% Inhibition” value is recorded as -3% and the Z score is 0.37.
